T1: UNK ZnF1-3 (human, UniProt Q9C0B0 31-174)
T1 sequence: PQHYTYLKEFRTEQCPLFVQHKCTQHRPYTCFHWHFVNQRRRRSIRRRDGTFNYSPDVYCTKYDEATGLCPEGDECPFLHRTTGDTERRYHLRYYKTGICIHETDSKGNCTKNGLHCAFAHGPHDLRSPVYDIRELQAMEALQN

B1: 31041438_31041558_596_CDS_ENSG00000197183_ENST00000359676|human|control|control (ssRNA)
RNA: GGGAGUUCUACAGUCCGACGAUCCUCAUGGUCAUCGUGGUCAUCGUCGUCAUCAUCUGCCGUCGGGGCCCGGCCCACUGUCAGGUCCUCAGGGCAGCCGCUGACCUCGGUCUUGAUGGAAUCGUAGCUCCCAGAGCUGUAGGGCAACAGAGGAUUGAGCAUCA
B2: 66626529_66627192_1617_CDS_ENSG00000173621_ENST00000309602|human|control|control (ssRNA)
RNA: GGGAGUUCUACAGUCCGACGAUCUGACAAGGCCAGCAGGCAGAGGUCAUAGUCAGCGCCGGGGACGAGGUGCUUCAGCAGGAAGUGGUGGCUGGAGGCUGGGACAAUCCGGUAGAUGAGGGUCUCAUCUUCGCUGCUGUUGUACAACAGAGGAUUGAGCAUCA
B3: chr5:138994509:138994510:+_ENSG00000131508_ENST00000398734|hu_mus|FALSE|FALSE (ssRNA)
RNA: GGGAGUUCUACAGUCCGACGAUCGAUGGACAAAAGUACUUUUGAAAUAGUUAGUGCUGGAGACCACUGUGACCGUAGAAUAUCAAGACAAAUGCUGCCAUUACUGUUAAUAUUUGGGUGAUAAAUUCUUGUUGUAAAUGCAACCAACAGAGGAUUGAGCAUCA
B4: chr1:185278638:185278639:-_ENSG00000116679_ENST00000392007|hu_hu|FALSE|FALSE (ssRNA)
RNA: GGGAGUUCUACAGUCCGACGAUCUAAAAUUUUCAUCCUCAAACAUCAAAUAUCCAUUGGGAAUCAUUUUUCCUUAUAAAUUUGGCUACUCUGUUGGUGGCAAAUGUAUUUCUGGGAACUCUUAAGUAAUCCAAGGACAAAGGACAACAGAGGAUUGAGCAUCA
B5: chr3:9412954:9412955:+_ENSG00000134077_ENST00000452837|hu_mus|hu_hu_hu_mus_False|18_108 (ssRNA)
RNA: GGGAGUUCUACAGUCCGACGAUCGGUUGAUACAUCCUCUUUGAUGGCUGGAUUUUCAUAAUAGUCCAAGAUAUGUGAAUCUGAAGUGCUGCUGGCAUGCUUUUUCUUACCAUCUUUCUGAUCGAUUUUGUCUCCUUGUCCACACAACAGAGGAUUGAGCAUCA
B6: chr4:140556289:140556290:+_ENSMUSG00000036622_ENSMUST00000037055|mus_mus|mus_mus_mus_hu_False|58_78 (ssRNA)
RNA: GGGAGUUCUACAGUCCGACGAUCGAUGGAGCUCACCAGGCCCCCUUUUGCCGUGCAGAACCCUGUCCGGGUCACCACUGCUAGCACGUGCGGUCCCACAUAGGCCCGGGCCUGCAAGAUGAGGGUCCCGCAGAAGAGUGUGUGCAACAGAGGAUUGAGCAUCA
B7: 102151997_102154889_5144_CDS_ENSMUSG00000021182_ENSMUST00000068411|mouse|control|control (ssRNA)
RNA: GGGAGUUCUACAGUCCGACGAUCACGGCAGCUGGGAGUAUCAUGGGUAGGAGAGCCUCCUCGGUUACUCUCCUCUAAAAAUUCCUCCAAGGUGACCAUCUCACUGCUGGGAGAGGCUGAGUGGGGUCGCACUCCCGUGUGGGUCAACAGAGGAUUGAGCAUCA
B8: chr17:56739783:56739784:+_ENSMUSG00000071054_ENSMUST00000095224|mus_mus|motif|central (ssRNA)
RNA: GGGAGUUCUACAGUCCGACGAUCAUAUCUGCUAAACAGGUUCUUCAGAUCCGUGGCUCUGGUUGUAGACGAAAGGCCACGGACCCAGAAAUUCCUACCACAGCUGCUGCGACCCUUCUCUUCUCGGGAAAGCCUUUUUGUAUCCAACAGAGGAUUGAGCAUCA
B9: chr2:39278355:39278356:-_ENSG00000115904_ENST00000402219|hu_hu|motif|central (ssRNA)
RNA: GGGAGUUCUACAGUCCGACGAUCGCAGCUUCCUACUAGUGGAUGGGGACUGCCUUCAUCUGUCAUUUCUACUGUAUCUUCGGUAUGGCCCAGUAACUUUACACUAAGUUCAUGUAUAUCUACUAUGCGACUAAAUAUAUUUUCCAACAGAGGAUUGAGCAUCA
B10: chr10:73576327:73576328:-_ENSG00000197746_ENST00000394936|hu_hu|motif|central (ssRNA)
RNA: GGGAGUUCUACAGUCCGACGAUCGCCAGAGGCCUAGGAGCUCGCCAUCCAUAUUUAUUUGAAAAGGUCAAAAGGAGCAUCGGUGAGACAAGGGAGGGGUGCAGGCUGAAGCAGCGCCUCAACAGCCAGGGACAUGUAGGCAACCAACAGAGGAUUGAGCAUCA
B11: chr11:86503612:86503613:+_ENSMUSG00000072582_ENSMUST00000108022|mus_mus|FALSE|FALSE (ssRNA)
RNA: GGGAGUUCUACAGUCCGACGAUCUUACUGACAGGCUCCAUAGUCUUCGGACAGAAUCUCCAUCAAGCAAAAGCUUAUCUAGUAAAGUUUUAGGUGGCCAGUAACUUCAUCAAUUAGUUCUACUGGUCCUGGCCCAAUUCCCAGCAACAGAGGAUUGAGCAUCA
B12: chr9:31209820:31209821:+_ENSMUSG00000042185_ENSMUST00000086167|mus_hu|FALSE|FALSE (ssRNA)
RNA: GGGAGUUCUACAGUCCGACGAUCUUCUUGCUUACAGAAGGCCUGAUCUUUGGUCUCUAGCCAUAGCUGGAAGAGGGCAGCUAAUUCCUUUUCAUUAUCUUGGGAUUGGCCAAGCAACUUCCACUGCUGGGUUUUCUCUUUGAACAACAGAGGAUUGAGCAUCA
B13: chr2:179515052:179515053:+_ENSMUSG00000000305_ENSMUST00000000314|mus_hu|mus_mus_mus_hu_False|28_88 (ssRNA)
RNA: GGGAGUUCUACAGUCCGACGAUCGCUGUCCCAUGCAGUCACCGUGAAGGCCACCUGCUCGGAGGGGACCUGCAGCUCCCGGGUGGCGAAGACUGUCCCAUCUGCCCCGACUUUGAAGUCCAUGCUGUUGGUCUCAUAUUGUGUCAACAGAGGAUUGAGCAUCA
B14: chr1:230810825:230810826:+_ENSG00000135775_ENST00000366669|hu_mus|motif|central (ssRNA)
RNA: GGGAGUUCUACAGUCCGACGAUCUUUCUGGUGAAAGGCGUCUGGGUCCCCAGGGUUGAAGAGCGAGGGUAGCUUUUCCUCGGGGCCUCGAACUAUUUCUGGCCACACAGAAUUCACCAAGAAAUCAUAGCCAGGAACGAUAGUCAACAGAGGAUUGAGCAUCA
B15: chr3:148802587:148802588:-_ENSG00000071794_ENST00000310053|hu_mus|hu_hu_hu_mus_False|38_58 (ssRNA)
RNA: GGGAGUUCUACAGUCCGACGAUCUCCAACAACUUGUCCUCUCAUAGUUCCAAAUAAAACCAAAUCUUGCUCUUCAUCACUAGUUAGGAAGUCAUCUGGAGGGAUAAUGUCUUGGAAUUCAAAAUGUGGCAAGAAAGUUGAGUACAACAGAGGAUUGAGCAUCA
B16: chr6:114281168:114281169:-_ENSG00000196591_ENST00000368632|hu_hu|hu_hu_hu_mus_True|8_8 (ssRNA)
RNA: GGGAGUUCUACAGUCCGACGAUCUUCCAUUUUUCGGUAUAAACCAUAAUUUAGCAGCAAGUUAUGAGUCAUCCGGAUUCUAUGAGGCUUCAUGGGAUGACCCUGGCCAUAAUAAUAAUUGCCAAUAUCACAGAUUCAGUAGUACAACAGAGGAUUGAGCAUCA
B17: chr9:91930108:91930109:+_ENSG00000123975_ENST00000314355|hu_mus|FALSE|FALSE (ssRNA)
RNA: GGGAGUUCUACAGUCCGACGAUCACCAAGUCUCCUCCACUCCUCUUCGGACAUCAGAUGAGUUUUGGGUACUUGUUUAGAGAGUUCUCUGGGUAACAUGACAUGCCGGUACUCGUAGUGCUCAUCGAAGUACUUGUCUGAGUACAACAGAGGAUUGAGCAUCA
B18: chr7:138189096:138189097:+_ENSG00000122779_ENST00000415680|hu_hu|motif|central (ssRNA)
RNA: GGGAGUUCUACAGUCCGACGAUCUGACUUUUCUACUGUACUGCUGGGAACCUCAGUAGUGUCCUUCACAAAAAAGUUAUCGGUGAUGUGUCUCUCUGCACAUUCUUGGCUGCAAACUGGGCAACGAAUGACUCCAACUUGGGUCAACAGAGGAUUGAGCAUCA
B19: chr11:54683702:54683703:+_ENSMUSG00000020267_ENSMUST00000020504|mus_mus|motif|central (ssRNA)
RNA: GGGAGUUCUACAGUCCGACGAUCACAUUUCUUGCCAACAAUCAUUAAAUGUCCUAGAAGACUUUCAUCAUCAUCAUCUGCGGCAGAAAUCUGGGAUAUAUGCUUCUUGGGUAUCACCAGAAAGUGUGUUGGUGCUUGAGGGGACAACAGAGGAUUGAGCAUCA
B20: chr4:76721835:76721836:+_ENSG00000138768_ENST00000264904|hu_mus|hu_hu_hu_mus_True|38_98 (ssRNA)
RNA: GGGAGUUCUACAGUCCGACGAUCGUUUGGCUGGGGUUCUGAGAUGCCUCUGGAAUAUAACUCAUGUUUGCUAAUAAAUCCUAGUUUCUCUAUGAAAUCUCUUUGCCCAAUCCUCUUCUCUAUUAGUUGCUUUAGUUUCUCUUUCAACAGAGGAUUGAGCAUCA
B21: chr10:1042047:1042048:+_ENSG00000107937_ENST00000545048|hu_hu|FALSE|FALSE (ssRNA)
RNA: GGGAGUUCUACAGUCCGACGAUCGUAGAGAGAGUCGCCAUACUUCAUCAGUCGCACAUAAUCUUUAGCAACAUUGUCCACUAAAUUUUUGGCAAUAUUUAUUUGCCCCAGAGCCAACUUGUAAUGAUCCUUGUCGUAGAGAAUCAACAGAGGAUUGAGCAUCA
B22: chr9:95013113:95013114:-_ENSG00000196305_ENST00000443024|hu_hu|hu_hu_hu_mus_False|18_58 (ssRNA)
RNA: GGGAGUUCUACAGUCCGACGAUCCUCAGUCAGAAAGGGCGUGUAAGGGGCCAUCAGUCUGCACAGAGAAAGCAGGACACUAAACAAUGUCUCCAGAGCCAUGACACAGUCUUCCACCCCAUUUUCACCCUUUAACCUCCUCCUCAACAGAGGAUUGAGCAUCA

The other results are listed elsewhere or left out.

The experiment deals with T1, UNK ZnF1-3. Description: nsRBNS (natural sequence RNA bind-n-seq); RBNS binding buffer (assumed for nsRBNS): 25 mM Tris pH 7.5, 150 mM KCl, 3 mM MgCl2, 0.01% Triton X-100, 500 ug/ml BSA, 20 U/ml SUPERase-In, 4 C; UNK is unkempt and MSI1 is Musashi-1; names of the RNAs are library labels; protein concentration not given here; high values mean tight binding.
In turn, B1 came in with a binding signal of 0.479 enrichment R.

B2: the binding signal stood at 1.67 enrichment R.

In turn, B3 came in with a binding signal of 1.11 enrichment R.

In the case of B4, the binding signal worked out at 0.777 enrichment R.

Regarding B5, the binding signal was 0.554 enrichment R.

As for B6, the binding signal was found to be 1.16 enrichment R.

Molecule B7 displayed a binding signal of 0.891 enrichment R.

Take B8: the binding signal was found to be 0.711 enrichment R.

Molecule B9 yielded a binding signal of 0.543 enrichment R.

Regarding B10, the binding signal came to 2.45 enrichment R.

Consider B11, for which the binding signal was found to be 1.52 enrichment R.

B12 displayed a binding signal of 0.541 enrichment R.

With B13, the binding signal came out at 0.878 enrichment R.

With B14, the binding signal was determined as 0.646 enrichment R.

In turn, B15 yielded a binding signal of 1.24 enrichment R.

For B16, the binding signal came out at 0.891 enrichment R.

For the molecule B17, the binding signal stood at 0.306 enrichment R.

B18 showed a binding signal of 0.771 enrichment R.

Regarding B19, the binding signal was found to be 1.46 enrichment R.

As for B20, the binding signal came to 0.455 enrichment R.

In the case of B21, the binding signal stood at 1.34 enrichment R.

As to B22, the binding signal turned out to be 1.42 enrichment R.

(Values after PMC12136788.)
